Assay results reported in publication PMC8544235, “Expression and Display of Glycoengineered Antibodies and Antibody Fragments with an Engineered Yeast Strain” (Antibodies, 2021).

Target: T1, Rituximab expressed from the EBY100-(GPD) EndoS2 strain (truncated N-glycan) (human, N-glycan at N297 of a single N-acetylglucosamine residue (99.36% by ESI-MS))
T1 construct: variable region of the Rituximab heavy chain; constant region of the human IgG1 heavy chain, as in Rituximab; Rituximab light chain; IgG1; It is a molecule here only as the ligand of FcγRIIIa and of Protein A; A supplemental MS Excel worksheet lists peptides that cover 93.9% and 100% of the heavy and light chains; also called yeast-expressed Rituximab; glycoengineered Rituximab; source: S. …
Test: SPR; Rituximab immobilised on a CM5 chip, BiaCore T200; increasing concentrations of GFP-FcγRIIIa applied until equilibrium; 1:1 binding model
Details: both partners purified

Kd: 2 µM
B1: GFP-FcγRIIIa (receptor)
chain: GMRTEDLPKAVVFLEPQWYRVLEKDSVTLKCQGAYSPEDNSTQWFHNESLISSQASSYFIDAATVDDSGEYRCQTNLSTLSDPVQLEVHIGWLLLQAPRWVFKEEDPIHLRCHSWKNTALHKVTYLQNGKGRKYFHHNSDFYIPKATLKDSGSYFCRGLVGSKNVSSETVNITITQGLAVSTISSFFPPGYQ
